± gives the standard deviation. Over roughly 3,000 sequences, “pre-steady-state target cleavage rate” has its median near 0.0079; the highest 2% begin near 0.2. This is a selection; strong and weak results do not stand in their true shares.
What follows are sequences tested on MILI (PIWIL2) piRISC loaded with piRNA #2 (26 nt) (assay: pre-steady-state target cleavage rate (min^-1); MIWI and MILI are mouse PIWI proteins and EfPiwi is from a freshwater sponge; tags in brackets are library labels; higher = faster piRNA-guided slicing of the target). Details: guide: piRNA #2 5'p-UUAGGUAACCCAGUAGAUCCAGAGGA; auxiliary factor: 500 nM mouse GTSF1.
Experimental: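 Cleave-'n-Seq: a library of target RNAs (target site embedded in constant flanks, ACAGCATTCCGCGTTAGTGATATCCG... 5' flank; DNA-blocked outside the site) at 0.1 nM was incubated with 1 nM active mouse MILI or MIWI piRISC (synthetic 5'-monophosphorylated piRNA guide) with or without 500 nM mouse GTSF1 at 33 °C for 1 min to 16 h. Uncleaved targets were sequenced and normalised to non-target controls, and the pooled three trials were fitted to a burst-and-steady-state model to give the pre-steady-state cleavage rate (min^-1; k3 is constrained to at most 1e-4). Sequence is the target site only; target names encode pairing extent (gX:gY) and contiguous / 1-mismatch / 2-mismatch / bulge geometry. Fits with R² ≤ 0 are excluded.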

| Sequence | pre-steady-state target cleavage rate |
| --- | --- |
| CUUAACCUCUGGAUCUACUGGGUUACUCUAA | 0.123 ± 0.026 |
| CUUAACCUCUGGAUCUACAGGGAUACCUAA | 0.0435 ± 0.011 |
| CUUAAGGUCUGGAUCUACUGGGUUACGCUAA | 0.127 ± 0.023 |
| CUUAAGGAGAGGAUCUACUGGGUUAACCUAA | 0.00517 ± 0.0051 |
| CUUAACCAUCUGGAUCUACUGGGUUACCUAA | 0.122 ± 0.025 |
| CUUAACGUCUGGUUCUACUGGGUUACCUAA | 0.158 ± 0.026 |
| CUUAAGGAGUGGAUCUACUGGGUUACACUAA | 0.0115 ± 0.0053 |
| CUUAACCUCUGGAUGUACUGGGUUACCAAA | 0.0793 ± 0.019 |
| CUUAUCCUCUGGACUACUGGGUUACCUAA | 0.133 ± 0.027 |
| CUUAAGCUCUGGAUCUUCUGGGUUACCUAA | 0.043 ± 0.012 |
| CUUAAGCUCUGGUAGUACUGGGUUACCUAA | 0.0538 ± 0.018 |
| CUUAUCCUCUGGAUCUACUGGGUUACUUAA | 0.114 ± 0.02 |
| CUUAAGGACCGGAUCUACUGGGUUACCUAA | 0.027 ± 0.022 |
| CUUAACUCUCUGGAUCUACUGGGUUACCUAA | 0.0665 ± 0.022 |
| CUUAAGGUCAGGAUCUACUGGGUUACCUAA | 0.0467 ± 0.016 |
| CUUAAGCUCUGGAUCUACUGCGUUACCAAA | 0.00805 ± 0.0058 |
| CUUAAGGUCUGGAUCUACAGGGUUUCCUAA | 0.103 ± 0.024 |
| CUUAAGGAGAGAUCUACUGGGUUACCUAA | 0.00723 ± 0.0036 |
| CUUAACCUCUGGAUCUCUGGGUUACCUAA | 0.00889 ± 0.0054 |
| CUUAUCCUCUGGAUCUUCUGGGUUACCUAA | 0.105 ± 0.019 |
| CUUAAGGAGUGGAUCUACUGGGUUACGUAA | 0.0045 ± 0.0042 |
| CUUAAGGAGAGGAUCUACUGGGUUACCUCA | 0.00557 ± 0.0041 |
| CUUAUCGUCUGGAUCUACUGGGUUAGCUAA | 0.0155 ± 0.008 |

| Sequence | pre-steady-state target cleavage rate |
| --- | --- |
| CUUAAGGUCUGGAUCUACUGGGUUACCGAA | 0.0348 ± 0.01 |
| CUUAACCUCUGGAACUUCUGGGUUACCUAA | 0.103 ± 0.028 |
| CUUAAGGACUGGAGCUACUGGGUUACCUAA | 0.0233 ± 0.012 |
| CUUAUGCUCUGGAUCUACUGGGUUACCUAA | 0.0726 ± 0.012 |
| CUUAAGCUCUGGAUCUACAGGGUUACCUUA | 0.045 ± 0.01 |
| CUUAAGGAGACGAUCUUCAGGGUUACCUAA | 0.0054 ± 0.003 |
| CUUAAGGUCUGGAUCUACUGGGUUACCAA | 0.0545 ± 0.012 |
| CUUAUCCUCAGGAUCUACUGGGUUACCUAA | 0.114 ± 0.021 |
| CUUAAGGUCUGGAUGAUCUGGGUUACCUAA | 0.00928 ± 0.0075 |
| CUUAAGCUGACGAUCUACUGGGUUACCUAA | 0.0365 ± 0.015 |
| CUUAUCCUCUGGAUCAACUGGGUUACCUUA | 0.0776 ± 0.018 |
| CUUAUCCUCUGGAAGAACUGGGUUACCUAA | 0.0135 ± 0.0073 |
| CUUAAGCUCUGGAUCUACUGGGAUAGCUAA | 0.0319 ± 0.0099 |
| CUUAACCUCUGGAUCUACUGGGUUACCUAU [g2:g25:cont:t1U] | 0.14 ± 0.027 |
| CUUAAGCUCUGGAUCUACUGGGUUUCCUUA | 0.083 ± 0.025 |
| CUUAACCUCUCGAUCUUCUGGGUUACCUAA | 0.143 ± 0.026 |
| CUUAAGGUCUGGAUCUACUGGGUAACCUAA | 0.0247 ± 0.0096 |
| CUUAAGGUCUGGAUCUACUGGGUUACCUCAA | 0.0674 ± 0.015 |
| CUUAAGGAGUGGAUCUACUGGGUUACGUUA | 0.0049 ± 0.0037 |
| CUUAAGGAGUGGAUCAACAGGGUUACCUAA | 0.0156 ± 0.005 |
| CUUAAGCUUUGGAUCUACUGGGUUACCUAA | 0.103 ± 0.024 |
| CUUAACCUCUGGUUCUACUGGGUUAGCUAA | 0.0494 ± 0.022 |
| CUUAACCUCUGGAUCUACUGGGAUAGCUAA | 0.0457 ± 0.016 |
